Measured values published in PMC9911399, “Two distinct binding modes provide the RNA-binding protein RbFox with extraordinary sequence specificity”.
Where a chain is given by its changes, count along the chain named. The list shows a part of the results.

T1: RBFOX1 RRM RbFoxmut (Fox-RRM*) (Homo sapiens, UniProt Q9NWB1 109-208, R118D;E147R;N151S;E152T)
T1 sequence: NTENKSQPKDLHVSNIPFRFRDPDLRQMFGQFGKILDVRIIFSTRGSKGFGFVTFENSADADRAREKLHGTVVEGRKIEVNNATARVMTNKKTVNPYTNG

B1: AUUGGUA (DNA:RNA)
RNA: GGGAGACCGGAAUUCAGAUUGUCCAUUGGUAUUAAAUCCCGUCGUAGCCACCA
DNA 1: CAATCTGAATTCCGGTCTCCC
DNA 2: TGGTGGCTACGACGGGATT
B2: UAUCUUC (DNA:RNA)
RNA: B1 RNA with A25U, U26A, G28C, G29U, A31C
DNA 1: CAATCTGAATTCCGGTCTCCC
DNA 2: TGGTGGCTACGACGGGATT
B3: CAGCCGA (DNA:RNA)
RNA: B1 RNA with A25C, U26A, U27G, G28C, G29C, U30G
DNA 1: CAATCTGAATTCCGGTCTCCC
DNA 2: TGGTGGCTACGACGGGATT
B4: AGUACUC (DNA:RNA)
RNA: B1 RNA with U26G, G28A, G29C, A31C
DNA 1: CAATCTGAATTCCGGTCTCCC
DNA 2: TGGTGGCTACGACGGGATT
B5: GUGGAAC (DNA:RNA)
RNA: B1 RNA with A25G, U27G, G29A, U30A, A31C
DNA 1: CAATCTGAATTCCGGTCTCCC
DNA 2: TGGTGGCTACGACGGGATT
B6: AGUAAGG (DNA:RNA)
RNA: B1 RNA with U26G, G28A, G29A, U30G, A31G
DNA 1: CAATCTGAATTCCGGTCTCCC
DNA 2: TGGTGGCTACGACGGGATT
B7: GUACGUU (DNA:RNA)
RNA: B1 RNA with A25G, U27A, G28C, A31U
DNA 1: CAATCTGAATTCCGGTCTCCC
DNA 2: TGGTGGCTACGACGGGATT
B8: CGUAUUA (DNA:RNA)
RNA: B1 RNA with A25C, U26G, G28A, G29U
DNA 1: CAATCTGAATTCCGGTCTCCC
DNA 2: TGGTGGCTACGACGGGATT
B9: AGAUGGA (DNA:RNA)
RNA: B1 RNA with U26G, U27A, G28U, U30G
DNA 1: CAATCTGAATTCCGGTCTCCC
DNA 2: TGGTGGCTACGACGGGATT
B10: GCAGCGA (DNA:RNA)
RNA: B1 RNA with A25G, U26C, U27A, G29C, U30G
DNA 1: CAATCTGAATTCCGGTCTCCC
DNA 2: TGGTGGCTACGACGGGATT
B11: AGUUUGC (DNA:RNA)
RNA: B1 RNA with U26G, G28U, G29U, U30G, A31C
DNA 1: CAATCTGAATTCCGGTCTCCC
DNA 2: TGGTGGCTACGACGGGATT
B12: GGACCUU (DNA:RNA)
RNA: B1 RNA with A25G, U26G, U27A, G28C, G29C, A31U
DNA 1: CAATCTGAATTCCGGTCTCCC
DNA 2: TGGTGGCTACGACGGGATT
B13: AUGUAGC (DNA:RNA)
RNA: B1 RNA with U27G, G28U, G29A, U30G, A31C
DNA 1: CAATCTGAATTCCGGTCTCCC
DNA 2: TGGTGGCTACGACGGGATT
B14: UGGCGAG (DNA:RNA)
RNA: B1 RNA with A25U, U26G, U27G, G28C, U30A, A31G
DNA 1: CAATCTGAATTCCGGTCTCCC
DNA 2: TGGTGGCTACGACGGGATT
B15: AUAUGUC (DNA:RNA)
RNA: B1 RNA with U27A, G28U, A31C
DNA 1: CAATCTGAATTCCGGTCTCCC
DNA 2: TGGTGGCTACGACGGGATT
B16: CAUAAGU (DNA:RNA)
RNA: B1 RNA with A25C, U26A, G28A, G29A, U30G, A31U
DNA 1: CAATCTGAATTCCGGTCTCCC
DNA 2: TGGTGGCTACGACGGGATT
B17: UAGCCUG (DNA:RNA)
RNA: B1 RNA with A25U, U26A, U27G, G28C, G29C, A31G
DNA 1: CAATCTGAATTCCGGTCTCCC
DNA 2: TGGTGGCTACGACGGGATT
B18: ACGUGAG (DNA:RNA)
RNA: B1 RNA with U26C, U27G, G28U, U30A, A31G
DNA 1: CAATCTGAATTCCGGTCTCCC
DNA 2: TGGTGGCTACGACGGGATT
B19: UAAUCAC (DNA:RNA)
RNA: GGGAGACCGGAAUUCAGAUUGUCCUAAUCACUUAAAUCCCGUCGUAGCCACCA
DNA 1: CAATCTGAATTCCGGTCTCCC
DNA 2: TGGTGGCTACGACGGGATT
B20: GGUCGGC (DNA:RNA)
RNA: B1 RNA with A25G, U26G, G28C, U30G, A31C
DNA 1: CAATCTGAATTCCGGTCTCCC
DNA 2: TGGTGGCTACGACGGGATT
B21: UAAAAAG (DNA:RNA)
RNA: B19 RNA with U28A, C29A, C31G
DNA 1: CAATCTGAATTCCGGTCTCCC
DNA 2: TGGTGGCTACGACGGGATT
B22: UCCUUGC (DNA:RNA)
RNA: B19 RNA with A26C, A27C, C29U, A30G
DNA 1: CAATCTGAATTCCGGTCTCCC
DNA 2: TGGTGGCTACGACGGGATT
B23: CGAUUAA (DNA:RNA)
RNA: B19 RNA with U25C, A26G, C29U, C31A
DNA 1: CAATCTGAATTCCGGTCTCCC
DNA 2: TGGTGGCTACGACGGGATT
B24: UUCUCGC (DNA:RNA)
RNA: B19 RNA with A26U, A27C, A30G
DNA 1: CAATCTGAATTCCGGTCTCCC
DNA 2: TGGTGGCTACGACGGGATT
B25: UCGUUUU (DNA:RNA)
RNA: B19 RNA with A26C, A27G, C29U, A30U, C31U
DNA 1: CAATCTGAATTCCGGTCTCCC
DNA 2: TGGTGGCTACGACGGGATT
B26: GUGGUCG (DNA:RNA)
RNA: B1 RNA with A25G, U27G, G29U, U30C, A31G
DNA 1: CAATCTGAATTCCGGTCTCCC
DNA 2: TGGTGGCTACGACGGGATT
B27: CCCUCGC (DNA:RNA)
RNA: B19 RNA with U25C, A26C, A27C, A30G
DNA 1: CAATCTGAATTCCGGTCTCCC
DNA 2: TGGTGGCTACGACGGGATT
B28: CCCUAAC (DNA:RNA)
RNA: B19 RNA with U25C, A26C, A27C, C29A
DNA 1: CAATCTGAATTCCGGTCTCCC
DNA 2: TGGTGGCTACGACGGGATT
B29: CACUGGU (DNA:RNA)
RNA: B19 RNA with U25C, A27C, C29G, A30G, C31U
DNA 1: CAATCTGAATTCCGGTCTCCC
DNA 2: TGGTGGCTACGACGGGATT
B30: GUCUGUU (DNA:RNA)
RNA: B1 RNA with A25G, U27C, G28U, A31U
DNA 1: CAATCTGAATTCCGGTCTCCC
DNA 2: TGGTGGCTACGACGGGATT
B31: AGAACCG (DNA:RNA)
RNA: B19 RNA with U25A, A26G, U28A, A30C, C31G
DNA 1: CAATCTGAATTCCGGTCTCCC
DNA 2: TGGTGGCTACGACGGGATT

What follows are binders tested against T1, RBFOX1 RRM RbFoxmut (Fox-RRM*) (assay: EMSA; HiTS-Eq, 1 nM pool, 10 min; buffer printed only for the single-RNA assays: 10 mM Tris pH 7.5, 150 mM NaCl, 3.4 mM EDTA, 0.001% NP-40, 30 C). Settings: tags: His6 N-terminal (pET28a); label: 5' 32P.
Summary of the method: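 Purified RbFox RRM, wild type or mutant, was incubated for 10 min in 50 µL with 1 nM of a 5′-radiolabelled RNA pool carrying 7 randomized nucleotides, whose flanks were annealed to DNA oligonucleotides, over a series of increasing protein concentrations. Unbound RNA was resolved on 8% native PAGE, cut out, reverse-transcribed, barcoded by PCR and sequenced on an Illumina HiSeq 2500. Relative association constants were derived from changes in read counts for each RNA species versus the control reaction and normalised to the cognate motif.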

Binder | binding signal
B1 | 0.171 KA relative to UGCAUGU
B2 | 0.0639 KA relative to UGCAUGU
B3 | 0.0846 KA relative to UGCAUGU
B4 | 0.0527 KA relative to UGCAUGU
B5 | 0.112 KA relative to UGCAUGU
B6 | 0.0904 KA relative to UGCAUGU
B7 | 0.179 KA relative to UGCAUGU
B8 | 0.126 KA relative to UGCAUGU
B9 | 0.0683 KA relative to UGCAUGU
B10 | 0.0835 KA relative to UGCAUGU
B11 | 0.162 KA relative to UGCAUGU
B12 | 0.0608 KA relative to UGCAUGU
B13 | 0.153 KA relative to UGCAUGU
B14 | 0.131 KA relative to UGCAUGU
B15 | 0.222 KA relative to UGCAUGU
B16 | 0.135 KA relative to UGCAUGU

Binder | binding signal
B17 | 0.14 KA relative to UGCAUGU
B18 | 0.13 KA relative to UGCAUGU
B19 | 0.0502 KA relative to UGCAUGU
B20 | 0.0997 KA relative to UGCAUGU
B21 | 0.0843 KA relative to UGCAUGU
B22 | 0.108 KA relative to UGCAUGU
B23 | 0.128 KA relative to UGCAUGU
B24 | 0.0961 KA relative to UGCAUGU
B25 | 0.0973 KA relative to UGCAUGU
B26 | 0.311 KA relative to UGCAUGU
B27 | 0.12 KA relative to UGCAUGU
B28 | 0.0862 KA relative to UGCAUGU
B29 | 0.12 KA relative to UGCAUGU
B30 | 0.13 KA relative to UGCAUGU
B31 | 0.108 KA relative to UGCAUGU
